# Data reported in the supplement of paper PMC9446081.
# About 220 (0.56%) of roughly 39,000 compounds showed activity. The list shows a part of the results.
# Test system: Escherichia coli K-12 BW25113
# Assay: relative growth (OD600 normalised to plate interquartile mean) (fraction); higher = less growth inhibition, active = 0.2 or less
# Details: 50 µM; LB; incubation time: overnight (16-24 h)
# 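Further: static incubation at 37 °C against the wild-type strain, values averaged over two biological replicates.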
row,Structure (SMILES),relative growth
1,Cc1ccc(S(=O)(=O)N(C)C[C@H]2Oc3c(NC(=O)C4CC4)cccc3C(=O)N([C@H](C)CO)C[C@@H]2C)cc1,inactive: 0.983
2,C[C@@H]1CCCCO[C@@H](CN(C)C(=O)Cc2ccccc2)[C@@H](C)CN([C@H](C)CO)C(=O)c2cc(NC(=O)CCC(F)(F)F)ccc2O1,inactive: 0.986
3,C[C@@H]1CN([C@H](C)CO)S(=O)(=O)c2ccc(-c3cncnc3)cc2O[C@@H]1CN(C)C(=O)Cc1ccccc1,inactive: 1.03
4,COC(=O)C1C2CC3c4[nH]c5cc(OC)ccc5c4CCN3CC2CC(OC(=O)c2cc(OC)c(OC)c(OC)c2)C1OC (stereo not given),inactive: 0.986
5,C[C@@H]1CN([C@@H](C)CO)C(=O)c2c(c3ccccc3n2C)-c2ccccc2CO[C@H]1CN(C)C(=O)[C@H](C)c1ccccc1,inactive: 1.03
6,COc1ccc(NC(=O)N(C)C[C@H]2Oc3c(NC(=O)c4ccc(-c5nccs5)cc4)cccc3C(=O)N([C@@H](C)CO)C[C@@H]2C)cc1,inactive: 0.981
7,CC(C)C[C@H]1CC(=O)N=C(N)N1,inactive: 0.975
8,CC(C)CC#Cc1ccc2c(c1)O[C@@H](CN(C)C(=O)c1ccncc1)[C@H](C)CN([C@@H](C)CO)S2(=O)=O,inactive: 0.957
9,Cc1noc(C)c1NC(=O)Nc1ccc2c(c1)CC(=O)N([C@@H](C)CO)C[C@@H](C)[C@@H](CN(C)CC1CC1)O2,inactive: 1.02
10,CCOC(=O)C(C)(C)Oc1ccc(Cl)cc1,inactive: 1.04
11,CCNC(=O)[C@H]1O[C@@H](n2cnc3c(N)nc(NCCc4ccc(CCC(=O)O)cc4)nc32)[C@H](O)[C@@H]1O,inactive: 0.99
12,CC1(C)SCCN(S(=O)(=O)c2ccc(OCC#CCO)cc2)[C@H]1C(=O)NO,inactive: 1.01
13,C[C@@H]1CN([C@H](C)CO)C(=O)c2cc(NS(=O)(=O)c3ccc(Cl)cc3)ccc2O[C@H]1CN(C)C(=O)Nc1ccc(C(F)(F)F)cc1,inactive: 0.984
14,C[C@@H]1CN([C@H](C)CO)C(=O)c2cc(NS(=O)(=O)c3cn(C)cn3)ccc2O[C@@H](C)CCCCO[C@H]1CN(C)C,inactive: 0.984
15,COc1ccc2c3c([nH]c2c1)[C@@H](CO)N(C[C@]13CN(CC2CCCCC2)C1)S(=O)(=O)c1cn(cn1)C,inactive: 0.985
16,C[C@@H]1CN([C@@H](C)CO)C(=O)c2cc(NC(=O)Cn3cnnn3)ccc2O[C@@H]1CN(C)Cc1ccc2c(c1)OCO2,inactive: 0.967
17,CN1CCN(S(C)(=O)=O)CC1,inactive: 1.01
18,C[C@H](CO)N1C[C@H](C)[C@@H](CN(C)Cc2ccncc2)OCCCC[C@H](C)Oc2ccc(NS(C)(=O)=O)cc2C1=O,inactive: 0.983
19,NCc1ccc(S(N)(=O)=O)cc1,inactive: 0.893
20,CC(=O)NCCCS(=O)(=O)[O-].CC(=O)NCCCS(=O)(=O)[O-].[Ca+2],inactive: 1.1

row,Structure (SMILES),relative growth
1,CO[C@@H]1CN(C)C(=O)c2ccc(NC(=O)CN(C)C)cc2OC[C@@H](C)N(C(=O)C2CCOCC2)C[C@H]1C,inactive: 1.01
2,C[C@H](CO)N1C[C@H](C)[C@H](CN(C)S(=O)(=O)c2ccccc2)Oc2c(NS(=O)(=O)c3cccs3)cccc2C1=O,inactive: 0.988
3,COc1ccc(-c2cccc(-c3nc(C(=O)NCC(F)(F)F)cc4c3[C@@H](CCO)N([S@](=O)C(C)(C)C)C4)c2)cc1,inactive: 1.02
4,O=C(Cc1ccncc1)NCC[C@@H]1CC[C@H](NC(=O)C2CCOCC2)[C@@H](CO)O1,inactive: 0.999
5,C[C@@H]1CN([C@@H](C)CO)C(=O)c2cc(NC(=O)Nc3ccc4c(c3)OCO4)ccc2O[C@@H](C)CCCCO[C@@H]1CN(C)Cc1ccc2c(c1)OCO2,inactive: 1.01
6,C[C@H]1CN([C@@H](C)CO)C(=O)c2cc(Br)cnc2O[C@@H]1CN(C)C(=O)Nc1ccc(F)cc1,inactive: 1
7,C[C@@H]1CN([C@H](C)CO)C(=O)c2cc(NC(=O)Nc3ccc(F)cc3)ccc2O[C@@H](C)CCCCO[C@H]1CN(C)S(=O)(=O)c1ccc(F)cc1,inactive: 1.05
8,CO[C@H]1CN(C)C(=O)c2cc(NS(=O)(=O)CC(F)(F)F)ccc2OC[C@H](C)N(C(=O)c2ccc3c(c2)OCO3)C[C@H]1C,inactive: 0.966
9,Cc1noc(C)c1S(=O)(=O)Nc1ccc2c(c1)C(=O)N([C@H](C)CO)C[C@@H](C)[C@@H](CN(C)Cc1ccccc1)O2,inactive: 0.998
10,COc1ccc(S(=O)(=O)N(C)C[C@H]2Oc3c(NC(=O)Nc4c(C)noc4C)cccc3C(=O)N([C@@H](C)CO)C[C@@H]2C)cc1,inactive: 1.04
11,C[C@H]1CN([C@@H](C)CO)C(=O)c2ccccc2-c2ccccc2CO[C@@H]1CN(C)C(=O)Nc1cccc(C(F)(F)F)c1,inactive: 1.01
12,CC(C)=CCCC(C)CC=O (stereo not given),inactive: 1
13,COc1ccc(S(=O)(=O)N(C)C[C@H]2Oc3c(NS(=O)(=O)c4ccc(F)cc4)cccc3C(=O)N([C@H](C)CO)C[C@@H]2C)cc1,inactive: 0.997
14,C[C@@H]1CN([C@@H](C)CO)C(=O)c2cc(NC(=O)Nc3ccc(C(F)(F)F)cc3)ccc2O[C@@H](C)CCCCO[C@@H]1CN(C)Cc1ccc2c(c1)OCO2,inactive: 1
15,CNC[C@@H]1Oc2cc(C#CC(C)(C)O)ccc2S(=O)(=O)N([C@@H](C)CO)C[C@@H]1C,inactive: 1
16,C[C@@H]1CN([C@@H](C)CO)C(=O)c2cc(NS(=O)(=O)c3cn(C)cn3)ccc2O[C@@H]1CN(C)Cc1ccccc1,inactive: 1.02
17,O=C(C[C@@H]1C=C[C@H](NS(=O)(=O)c2ccc(F)cc2)[C@H](CO)O1)NCCN1CCCCC1,inactive: 0.999
18,COc1cccc(S(=O)(=O)N2C[C@@H](O)COC[C@@H]3O[C@H](CC(=O)N4CCN(C)CC4)CC[C@H]32)c1,inactive: 1
19,C[C@@H]1CCCCO[C@@H](CN(C)C(=O)Nc2cccc3ccccc23)[C@H](C)CN([C@@H](C)CO)C(=O)c2cc(NC(=O)Cc3ccccc3)ccc2O1,inactive: 1.04
20,C[C@H](CO)N1C[C@H](C)[C@H](CN(C)Cc2ccc(C(F)(F)F)cc2)Oc2ccc(NC(=O)CCCCCC(=O)Nc3ccccc3N)cc2C1=O,inactive: 1.08

row,Structure (SMILES),relative growth
1,Cc1ccc(S(=O)(=O)N(C)C[C@H]2Oc3c(NS(=O)(=O)c4ccccc4)cccc3C(=O)N([C@H](C)CO)C[C@@H]2C)cc1,inactive: 0.971
2,C=C[C@](C)(CC[C@@]1(C)[C@H](C)C[C@H](O[C@@H]2O[C@@H](C)[C@H](O)[C@@H](O[C@@H]3O[C@H](CO[C@@H]4O[C@@H](C)[C@H](O)[C@@H](O)[C@H]4O)[C@@H](O)[C@H](O)[C@H]3O)[C@H]2O)[C@@]2(C)C(C)=CCC[C@H]12)O[C@@H]1OC[C@H](O)[C@H](O)[C@H]1O[C@@H]1O[C@@H](C)[C@H](O)[C@@H](O)[C@H]1O,inactive: 0.998
3,C[C@@H]1CN([C@H](C)CO)C(=O)Cc2cc(NC(=O)CCN3CCOCC3)ccc2O[C@@H]1CN(C)S(=O)(=O)c1ccc(F)cc1,inactive: 0.996
4,CN(C)C(=N)NC(=N)N.Cl,inactive: 1.03
5,Cc1ccc(S(=O)(=O)N(C)C[C@@H]2OCCCC[C@@H](C)Oc3ccc(NS(C)(=O)=O)cc3C(=O)N([C@H](C)CO)C[C@@H]2C)cc1,inactive: 0.981
6,COc1cccc(S(=O)(=O)N(C)C[C@H]2Oc3ncc(C#CCC(C)C)cc3C(=O)N([C@@H](C)CO)C[C@@H]2C)c1,inactive: 1.01
7,Cc1ccc(S(=O)(=O)N(C)C[C@H]2Oc3ccc(NC(=O)NC(C)C)cc3CC(=O)N([C@H](C)CO)C[C@@H]2C)cc1,inactive: 1.02
8,C[C@H](CO)N1C[C@H](C)[C@H](CN(C)Cc2ccncc2)Oc2ccc(NC(=O)Nc3ccc(C(F)(F)F)cc3)cc2CC1=O,inactive: 1.01
9,COc1ccc(NC(=O)Nc2ccc3c(c2)C(=O)N([C@H](C)CO)C[C@H](C)[C@@H](CN(C)C(=O)Nc2ccc(C(F)(F)F)cc2)OCCCC[C@H](C)O3)cc1,inactive: 1
10,Cc1ccc(N2CC[C@@H](CN)C2)cc1,inactive: 0.994
11,C[C@H]1CCCCO[C@@H](CN(C)Cc2ccc(C(F)(F)F)cc2)[C@@H](C)CN([C@@H](C)CO)C(=O)c2cc(NC(=O)CCCN(C)C)ccc2O1,inactive: 0.961
12,C[C@@H]1CCCCO[C@@H](CN(C)S(=O)(=O)c2cccs2)[C@H](C)CN([C@@H](C)CO)C(=O)c2cc(NC(=O)c3ccccc3)ccc2O1,inactive: 1.03
13,CN(C)CC(=O)N[C@H]1CC[C@H](CCNC(=O)C2CC2)O[C@@H]1CO,inactive: 0.967
14,C[C@@H]1CN([C@H](C)CO)C(=O)c2cc(C#Cc3ccccc3F)cnc2O[C@@H]1CN(C)S(=O)(=O)c1ccccc1F,inactive: 1.02
15,COc1ccc(C#Cc2cnc3c(c2)C(=O)N([C@H](C)CO)C[C@H](C)[C@H](CN(C)C(=O)Nc2c(C)noc2C)O3)cc1OC,inactive: 1.01
16,CN(C)CC(=O)N1CCOC[C@@H]1c1nccc(N2CCOCC2)n1,inactive: 0.99
17,COc1ccc(NC(=O)Nc2ccc3c(c2)C(=O)N([C@H](C)CO)C[C@@H](C)[C@@H](CN(C)Cc2ccc4c(c2)OCO4)OCCCC[C@@H](C)O3)cc1,inactive: 1.01
18,Cc1cc(Oc2ccnc3cc(Cl)ccc23)ccc1Cl,inactive: 0.879
19,Cc1ccc(S(=O)(=O)N(C)C[C@@H]2Oc3c(NC(=O)c4ccncc4)cccc3C(=O)N([C@@H](C)CO)C[C@H]2C)cc1,inactive: 0.999
20,Cc1ccc(S(=O)(=O)Nc2ccc3c(c2)C(=O)N([C@@H](C)CO)C[C@@H](C)[C@@H](CN(C)Cc2ccc(-c4ccccc4)cc2)O3)cc1,inactive: 0.921
